Measurements reported in the antibiotic and cytotoxicity screens of Wong et al. (2023).
The other results are listed elsewhere or left out.

What follows are compounds tested on HepG2 (assay: cytotoxicity call (relative viability < 0.9)). Settings: 10 µM.

Compound	cytotoxicity call
Cc1ccc(S(=O)(=O)Nc2ccc3c(c2)C(=O)N([C@@H](C)CO)C[C@@H](C)[C@H](CN(C)S(=O)(=O)c2ccccc2)O3)cc1	inactive
C[C@H]1CN([C@@H](C)CO)C(=O)Cc2cc(NC(=O)CCCN(C)C)ccc2O[C@H]1CN(C)S(=O)(=O)c1ccc(F)cc1	inactive
C[C@@H]1CN([C@@H](C)CO)C(=O)c2cccc(NS(=O)(=O)c3cccs3)c2O[C@@H]1CN(C)Cc1ccc(-c2ccccc2)cc1	active
C[C@H](CO)N1C[C@H](C)[C@@H](CN(C)S(=O)(=O)c2ccc(F)cc2)Oc2c(NC(=O)Nc3cccc4ccccc34)cccc2C1=O	inactive
C[C@H](CO)N1C[C@H](C)[C@H](CN(C)Cc2ccc3c(c2)OCO3)Oc2c(NC(=O)Nc3cccc4ccccc34)cccc2C1=O	inactive
C[C@@H]1CN([C@H](C)CO)C(=O)c2c(c3ccccc3n2C)-c2ccccc2CO[C@@H]1CN(C)C(=O)CCC(F)(F)F	inactive
CCOC(=O)C(=O)N(C)CC(OC)OC	inactive
C[C@H](CO)N1C[C@H](C)[C@@H](CN(C)C(=O)Nc2ccc3c(c2)OCO3)Oc2ccc(NC(=O)Nc3cccc4ccccc34)cc2CC1=O	inactive
C[C@H]1CN([C@@H](C)CO)C(=O)c2cccc(NC(=O)Nc3cccc4ccccc34)c2O[C@@H]1CN(C)S(=O)(=O)c1ccc(F)cc1	active
CO[C@@H]1CN(C)C(=O)c2ccc(NS(=O)(=O)c3ccccc3C)cc2OC[C@@H](C)N(S(C)(=O)=O)C[C@H]1C	inactive
Cc1cc(-c2ccc(N=Nc3ccc4c(S(=O)(=O)[O-])cc(S(=O)(=O)[O-])c(N)c4c3O)c(C)c2)ccc1N=Nc1ccc2c(S(=O)(=O)[O-])cc(S(=O)(=O)[O-])c(N)c2c1O.[Na+].[Na+].[Na+].[Na+]	active
COc1ccc(NC(=O)N(C)C[C@H]2Oc3ccc(NS(C)(=O)=O)cc3C(=O)N([C@@H](C)CO)C[C@@H]2C)cc1	inactive
Cc1cccc(C)c1NC(=O)c1ccccc1C(=O)O	active
O=C(C[C@H]1C=C[C@@H](NC(=O)CN2CCOCC2)[C@H](CO)O1)NCc1cccc(F)c1	inactive
CC1=NN(c2ccc(C)c(C)c2)C(=O)C1=NNc1cccc(-c2cccc(C(=O)O)c2)c1O	inactive
CCOC(=O)[C@H](Cc1c[nH]c2ccccc12)NC(=O)Cn1cc(CN2C(=O)COC[C@H]2c2ccccc2)nn1	active
CO[C@H]1CN(C)C(=O)c2cc(NC(=O)Nc3ccccc3F)ccc2OC[C@H](C)N(Cc2ccccc2C(=O)O)C[C@H]1C	inactive
C[C@@H]1CCCCO[C@H](CN(C)C(=O)Nc2cccc3ccccc23)[C@@H](C)CN([C@@H](C)CO)C(=O)c2cc(NC(=O)Nc3ccc(C(F)(F)F)cc3)ccc2O1	inactive
C[C@@H](O)C#Cc1cnc2c(c1)C(=O)N([C@@H](C)CO)C[C@H](C)[C@@H](CN(C)Cc1cncnc1)O2	inactive
C[C@@H]1CCCCO[C@@H](CN(C)C(=O)Nc2ccc3c(c2)OCO3)[C@H](C)CN([C@@H](C)CO)C(=O)c2cc(NS(=O)(=O)c3ccc(F)cc3)ccc2O1	inactive

Compound	cytotoxicity call
CC[N+](CC)(CC)CCOc1ccc(C=Cc2ccccc2)cc1	inactive
C[C@@H]1CN([C@H](C)CO)S(=O)(=O)c2ccc(Br)cc2O[C@@H]1CN(C)Cc1ccc(C(=O)O)cc1	inactive
C[C@H](CO)N1C[C@H](C)[C@@H](CN(C)S(=O)(=O)c2ccc(Cl)cc2)Oc2c(NS(C)(=O)=O)cccc2C1=O	inactive
C[C@H](CO)N1C[C@H](C)[C@@H](CN(C)C(=O)c2cccc(F)c2)Oc2cc(-c3cncnc3)ccc2S1(=O)=O	inactive
C[C@@H]1CN([C@H](C)CO)S(=O)(=O)c2ccc(C3=CCCC3)cc2O[C@@H]1CN(C)C(=O)c1cnccn1	inactive
COc1ccc(NC(=O)N(C)C[C@@H]2OCCCC[C@@H](C)Oc3ccc(NS(=O)(=O)c4c(C)noc4C)cc3C(=O)N([C@H](C)CO)C[C@H]2C)cc1	inactive
COC1=CC(=O)c2ccccc2C1=O	inactive
C[C@@H]1COCC(=O)N1	inactive
C[C@@H]1CN([C@@H](C)CO)C(=O)CCCn2nncc2CO[C@H]1CN(C)C(=O)Nc1ccccc1C(F)(F)F	inactive
CN1C(=O)c2cc(NS(=O)(=O)c3cccc(F)c3)ccc2OC[C@H]2O[C@@H](CC(=O)NCCN3CCCCC3)CC[C@H]21	inactive
C[C@@H]1CN([C@@H](C)CO)S(=O)(=O)c2ccc(C#Cc3ccncc3)cc2O[C@H]1CN(C)C(=O)Nc1ccc2c(c1)OCO2	active
COc1ccc(CN(C)C[C@@H]2OCCCC[C@H](C)Oc3ccc(NC(=O)Nc4c(C)noc4C)cc3C(=O)N([C@@H](C)CO)C[C@H]2C)cc1	inactive
C[C@@H]1CN([C@H](C)CO)C(=O)c2cccc(NC(=O)Nc3cccc4ccccc34)c2O[C@H]1CN(C)S(=O)(=O)c1ccc(F)cc1	inactive
C[C@@H]1CN([C@@H](C)CO)C(=O)c2cc(NC(=O)Cn3cnnn3)ccc2O[C@H]1CN(C)C(=O)Nc1ccccc1	inactive
C[C@H]1CCCCO[C@@H](CN(C)S(=O)(=O)c2cccs2)[C@@H](C)CN([C@@H](C)CO)C(=O)c2cc(NS(=O)(=O)c3cn(C)cn3)ccc2O1	inactive
CCNC(=S)N1CCC[C@H](C(N)=O)C1	inactive
COc1ccccc1NC(=O)N(C)C[C@H]1Oc2ncc(C#CC(C)C)cc2C(=O)N([C@H](C)CO)C[C@@H]1C	inactive
CN1C(=O)c2cc(NS(C)(=O)=O)ccc2OC[C@H]2O[C@@H](CC(=O)N3CCOCC3)CC[C@H]21	inactive
O=C(O)c1c2ccccc2cc2ccccc12	inactive
C[C@H](CO)N1C[C@H](C)[C@@H](CN(C)S(=O)(=O)c2ccccc2)OCCCC[C@H](C)Oc2ccc(NC(=O)CCC(F)(F)F)cc2C1=O	inactive
